Measured values as given in PubChem BioAssay AID1479 (National Center for Advancing Translational Sciences (NCATS), 2009).
Among all 280,000 compounds or so, about 820 (0.29%) were called active. The shares of active, inactive and inconclusive entries below differ from those in the screen. The call rests on the fitted dose curve; in most records, active means well fitted curve in either direction with a large enough effect; inconclusive means small, poorly fitted or top-dose-only effect; inactive means flat fitted curve, though single readings scatter. Potencies of inconclusive entries are left out as doubtful fits.

Assay: Total Fluorescence Counterscreen for Inhibitors of the Interaction of Thyroid Hormone Receptor and Steroid Receptor Coregulator 2
Details: TRb/SRC2 Texas Red total fluorescence interference; series mostly up to 106 µM; fluorescence change, negative = quenching: at the top concentration
Text: NIH Molecular Libraries Probe Production Network [MLPCN]
NIH Chemical Genomics Center [NCGC]
Assay Provider: R. Kip Guy, St. Jude Children's Research Hospital
Thyroid receptor (TR) regulates many homeostatic processes including basal metabolism, cardiovascular function, body weight, and lipid trafficking. TR modulators are potential therapeutics for obesity and hyperlipidemias but current thyroid analogs have undesirable side effects, particularly cardiac stimulation. To identify inhibitors that specifically prevent the interaction of TR with the steroid receptor […] 2 (SRC2), a fluorescence polarization assay was screened. This assay detects interaction of the ligand-binding domain of human TRb with a Texas Red labeled SRC2 peptide, corresponding to a 20 amino acid region of the nuclear receptor interaction domain (Arnold et al., 2006). Total fluorescence (555 nm excitation and 632 nm emission) was measured to identify potential fluorescent and light absorbing compounds. Such compounds may be artifacts that interfere with the fluorescence polarization assay.
Arnold, L. A.; Estebanez-Perpina, E.; Togashi, M.; Shelat, A.; Ocasio, C. A.; McReynolds, A. C.; Nguyen, P.; Baxter, J. D.; Fletterick, R. J.; Webb, P.; Guy, R. K. A high-throughput screening method to identify small molecule inhibitors of thyroid hormone receptor coactivator binding. Sci STKE 2006, p 13.
NCGC Assay Protocol Summary:
For screening, 5 uL/well 0.6 uM TRb and 20 nM SRC2 Texas Red in protein buffer (20mM Tris hydrochloride, 100mM NaCl, 10% glycerol, 1mM EDTA, 0.01% NP-40, 1mM DTT, 1uM T3 and 5% DMSO) was dispensed into black solid 1536-well plates (Grenier) using a solenoid-based dispenser. Following transfer of 23 nL compound or DMSO vehicle by a pin tool, the plates were centrifuged 15 s at 1000 RPM and incubated 5 hr at ambient temperature. The plates were read by an Envision (Perkin Elmer) to detect fluorescence polarization of SRC2 Texas Red (555 nm excitation and 632 nm emission). Data were normalized to unbound (all components except TRb) and bound SRC2 Texas Red controls. Total fluorescence (TF) was calculated as follows: TF = S + 2P where S and P are fluorescence readings in the parallel and perpendicular channels, respectively.
Keywords: NIH Roadmap, MLPCN, MLI, MLSMR, qHTS, NCGC, qHTS, thyroid hormone receptor, steroid receptor coactivator, fluorescence polarization
On the % scale 0 is the no-effect control and ±100 the full control effect; potency means the concentration at half of the fitted maximal effect; tags describe the fitted curve by direction and shape or compound fluorescence and quenching.

Row | Structure (SMILES) | fluorescence change, negative = quenching | Potency
1 | O=C(/C=C/c1cccc(O)c1)c1ccc(N2CCOCC2)cc1 | inactive: -4.32% | 
2 | CCCCn1c(SCC(=O)Nc2cc(C(F)(F)F)cc(C(F)(F)F)c2)nnc1C(CC)N(C)C (stereo not given) |  | inconclusive [falling, partial curve, poor fit]
3 | CC1=C(C#N)C(NC(=O)c2cccc(Cl)c2)(C(F)(F)F)C(=O)N1 (stereo not given) |  | inconclusive [falling, full curve, poor fit]
4 | COCc1cc(C)n(CC(=O)Nc2ccc(NC(C)=O)cc2)c(=O)c1C#N |  | inconclusive [falling, full curve, poor fit]
5 | COc1cc2c3c(c1)/C(=C1/SC(=S)NC1=O)C(=O)N3C(C)(C)C=C2C |  | inconclusive [quencher, partial curve]
6 | COc1cccc(NC(=O)Nc2cc(-c3cn4cccnc4n3)ccc2C)c1 | inactive: -8.92% | 
7 | CCOc1ccc(/C=C(\C#N)c2nc(-c3cc4ccccc4oc3=O)cs2)c(OCC)c1 |  | inconclusive [quencher, full curve]
8 | CSc1ccc(CCNc2ncnc3onc(C)c23)cc1 |  | inconclusive [falling, full curve, poor fit]
9 | O=C(Cn1cc(C(F)(F)F)ccc1=O)N/N=C/c1ccccc1O | inactive: -0.914% | 
10 | CCOC(=O)c1noc2ncnc(N(CCC(=O)OC)c3ccccc3)c12 |  | inconclusive [falling, full curve, poor fit]
11 | CCOC(=O)c1noc2ncnc(Nc3ccc(C)c(F)c3)c12 | inactive: -4.99% | 
12 | C/C(=N\NC(=O)c1cc2ccccc2cc1O)c1cc2ccccc2o1 |  | active: 39.8 µM [quencher]
13 | Cc1ccc(S(=O)(=O)Nc2nc(C)c(NC(=O)Nc3ccc(Cl)cc3Cl)s2)cc1 | inactive: -2.73% | 
14 | Cc1cccn2c(=O)c(/C=C(\C#N)c3nc4ccccc4n3C)c(Oc3ccc(Br)cc3)nc12 |  | inconclusive [falling, partial curve, poor fit]
15 | CC(C)C(=O)c1cc2c(cc1NC(=O)c1ccccc1)OCCO2 | inactive: -2.69% | 
16 | Cc1ccc(C2CC(=O)Oc3cc(C)c(Cl)cc32)cc1 (stereo not given) |  | inconclusive [falling, partial curve, poor fit]
17 | CCc1nc(SCC(=O)OC(C)C)c2ccccc2n1 | inactive: -3.76% | 
18 | COc1ccc(-n2nc3ccc(NC(=O)c4cc5ccccc5o4)cc3n2)cc1Cl |  | inconclusive [falling, partial curve, poor fit]
19 | CCc1ccc(S(=O)(=O)c2cn(C)c3cc(N4CCCCC4C)c(F)cc3c2=O)cc1 (stereo not given) |  | active: 112 µM [quencher]
20 | CCCCN1CCC(COC(=O)c2cc(Cl)c(N)c3c2OCCO3)CC1 |  | inconclusive [quencher, full curve]
21 | Cc1ccccc1/C=C1\SC(=S)N(/N=C/c2cc([N+](=O)[O-])ccc2O)C1=O | inactive: -4.41% | 
22 | COc1ccc(/C=C/C(=O)c2c(O)c(OC)c3occc3c2OC)cc1 | inactive: -2.64% | 
23 | COc1ccc(N2C(=O)NC(NS(=O)(=O)c3ccc(NC(C)=O)cc3)(C(F)(F)F)C2=O)cc1 (stereo not given) |  | inconclusive [quencher, full curve]
24 | COc1ccc(Cl)cc1NC(=O)C(C)n1c(=O)cc(C(F)(F)F)c2c(C)nn(C)c21 (stereo not given) |  | inconclusive [falling, partial curve, poor fit]

Row | Structure (SMILES) | fluorescence change, negative = quenching | Potency
25 | CCc1ccc[n+](-c2[nH]c(=O)sc2/C=N/N=C(\[O-])CCn2c3ccccc3c3ccccc32)c1 | inactive: -3.37% | 
26 | O=C(NC(Nc1nc2ccc([N+](=O)[O-])cc2s1)(C(F)(F)F)C(F)(F)F)c1cccnc1 |  | inconclusive [falling, partial curve, poor fit]
27 | CCN1CCN(C(=O)Cn2c(-c3cccs3)cc3cc(Cl)ccc32)CC1 |  | inconclusive [quencher, full curve]
28 | NC(=S)n1[nH]c(-c2ccc([N+](=O)[O-])cc2)c(N=Nc2ccc(O)cc2)c1=O | inactive: -2.5% | 
29 | CCOC(=O)c1c(-c2ccc(Br)cc2)csc1NC(=O)c1ccc(C(C)(C)C)cc1 |  | inconclusive [falling, full curve, poor fit]
30 | O=C(O)c1cccc(-n2cccc2/C=C2/NC(=O)N(c3ccc(Cl)cc3)C2=O)c1 |  | active: 17.8 µM [quencher]
31 | CCOc1ccc(NC(=S)Nc2cccc3cnccc23)cc1 |  | inconclusive [falling, full curve, poor fit]
32 | CCOC(=O)c1c(C)c(C(=O)NCc2ccc(Cl)cc2)c(C)n1C |  | inconclusive [quencher, full curve]
33 | O=C(N/N=C\c1cccc(Cl)c1)c1n[nH]c2c1CCCC2 |  | inconclusive
34 | CCN1CCN(Cc2nc3cc(NC(=O)c4cccc([N+](=O)[O-])c4)ccc3n2CC)CC1 |  | active: 2.82 µM [quencher]
35 | O=[N+]([O-])c1c(NCCO)cc(N2CCN(Cc3ccc4c(c3)OCO4)CC2)c2nonc12 |  | inconclusive [falling, full curve, poor fit]
36 | CC(=O)n1cc(C(C[N+](=O)[O-])SCCN)c2ccccc21 (stereo not given) | inactive: -1.89% | 
37 | Cc1ccc(/C=C/C(=O)N2CCN(c3ccc(F)cc3)CC2)o1 | inactive: -0.612% | 
38 | CCN(CC)S(=O)(=O)c1nnc(NC(=O)COc2ccc(C)cc2)s1 | inactive: -28.6% | 
39 | COc1ccc(C2NC3=C(CCCC3)C(C#N)(C#N)C2(C#N)C#N)cc1 (stereo not given) | inactive: 16.4% | 
40 | CCc1ccc2oc(C(=O)NCC(c3ccc(Cl)cc3)N3CCOCC3)c(C)c2c1 (stereo not given) | inactive: 1.39% | 
41 | COc1ccc(C(OCCN2CCC[C@H](C(=O)O)C2)(c2ccc(OC)cc2)c2ccc(OC)cc2)cc1 | inactive: -9.58% | 
42 | CCc1ccc(OCC(=O)Nc2ccc(S(=O)(=O)Nc3onc(C)c3C)cc2)cc1 |  | inconclusive [falling, full curve, poor fit]
43 | CC(=O)c1ccc(NC(=O)c2sc(-n3nc(C)c(CCC(C)C)c3C)nc2C)cc1 |  | inconclusive [quencher, full curve]
44 | CCCC(=O)Nc1nc(-c2ccc(Cl)s2)cs1 | inactive: 2.07% | 
45 | O=C(Nc1cccc(F)c1)c1cc(S(=O)(=O)NCCC2=CCCCC2)ccc1F |  | inconclusive [quencher, full curve]
46 | O=C(N/N=C\c1ccc(-c2ccc([N+](=O)[O-])cc2)o1)c1ccc2c(c1)OCO2 | inactive: 2.81% | 
47 | CC(C)Cn1c(N)c(C(=O)NCC2CCCO2)c2nc3ccccc3nc21 (stereo not given) | inactive: -5.74% | 
48 | O=C(NNc1c2ccccc2nc2ccccc12)c1cc2ccccc2cc1O |  | inconclusive [quencher, partial curve]

Row | Structure (SMILES) | fluorescence change, negative = quenching | Potency
49 | Fc1ccc(-c2cc(-c3ccc(F)cc3)c3c(n2)-c2cc(F)ccc2OC3)cc1 |  | active: 17.8 µM [quencher]
50 | COc1ccc(CN=Cc2[nH]c3ccc(Br)c(Cl)c3c2O)cc1 | inactive: -2.31% | 
51 | COc1ccc(CCn2c(SCC(=O)Nc3cc(C)on3)nc3ccsc3c2=O)cc1OC | inactive: 2.42% | 
52 | NC(=S)N=Nc1c(O)n(CCCl)c2ccc(Cl)cc12 |  | inconclusive [rising, single point]
53 | COC(OC)[C@@H](C)[C@H](OC)[C@@H](C)[C@H](OC)c1ccccc1 |  | inconclusive [quencher, full curve]
54 | CSc1nc2ccc(NS(=O)(=O)c3cccc(Cl)c3Cl)cc2s1 |  | active: 1.12 µM [quencher]
55 | CCCCN(CC)CCCNC(=O)c1cn(C)c(=O)c2c1c1ccccc1n2C |  | inconclusive [falling, partial curve, poor fit]
56 | CCn1c(=O)c(=O)[nH]c2cc(C(=O)N3CCN(c4ccccc4F)CC3)ccc21 |  | active: 44.7 µM [fluorescent]
57 | COc1ccc(OC)c(C2C(C(=O)Nc3ccc(C)cc3)=C(C)Nc3nnnn32)c1 (stereo not given) |  | inconclusive [falling, partial curve, poor fit]
58 | Cc1ccc(NC(=O)c2ccc(CN3CC(=O)N4CCCCC4C3=O)cc2)c(Cl)c1 (stereo not given) |  | active: 70.8 µM [quencher]
59 | COc1ccc2c(c1)c(C(=O)N/N=C/c1cccc(Br)c1)c(C)n2C | inactive: 4.34% | 
60 | CC(=O)c1ccc(S(=O)(=O)NC(=O)NC2CCCCC2)cc1 |  | inconclusive [falling, full curve, poor fit]
61 | Cc1cc(C)cc(N2C(=O)CSC23C(=O)N(Cc2c(F)cccc2Cl)c2ccccc23)c1 (stereo not given) |  | inconclusive [falling, full curve, poor fit]
62 | CC(=O)N1c2ccc(S(=O)(=O)Nc3ccc(C)c(Cl)c3)cc2CC1C (stereo not given) |  | active: 15.8 µM [quencher]
63 | COc1cccc(NC(=O)c2csnn2)c1 |  | inconclusive [quencher, full curve]
64 | COc1ccc(CCN2C(=O)c3[nH]nc(-c4ccccc4O)c3C2c2ccccc2)cc1 (stereo not given) | inactive: 1.92% | 
65 | Cc1cc(C)c(Cn2c(=O)n(CCCCC(=O)NCc3ccccc3Cl)c(=O)c3ccccc32)c(C)c1 |  | inconclusive [falling, full curve, poor fit]
66 | CCCS(=O)(=O)c1c(S(=O)(=O)CCC)c2c(N)cccn2c1C(=O)c1ccc(F)cc1 | inactive: 3.95% | 
67 | CCOc1ccccc1NC(=O)CN1C(=O)COc2ccc(S(=O)(=O)NC3CCCC3)cc21 |  | inconclusive [quencher, full curve]
68 | COc1ccc(-c2ccc(NS(=O)(=O)c3ccc(OC)c(OC)c3)cc2)nn1 | inactive: -3.1% | 
69 | COc1cccc(N2CCN(c3ncnc4c3cnn4-c3ccc(C)cc3C)CC2)c1 | inactive: -0.0135% | 
70 | Cc1c(-c2ccccc2)oc2c(C(=O)N3CCN(c4ccc([N+](=O)[O-])cc4)CC3)cccc2c1=O |  | inconclusive [falling, partial curve, poor fit]
